# The supplement of paper PMC7826260
# Some of the results follow. Viral Rep nickase domains cut single-stranded DNA in vitro (1 h at 37 °C, 3 µM enzyme); the outer parts of the 90-letter strands are left off. The score is log2 (uncut reads / reads without enzyme); more negative means more cut, near 0 not cut, and no call is made. Shares of all reads are compared; uncut strands gain when others are lost, and binding without cutting may add a little.
# What was measured:
# Test in all cases: uncleaved DNA left, log2 of reads against the no-enzyme library (log2 ratio); higher = less cleavage (more negative = more Rep cleavage of the k-mer); sequences stand for … in CTCGTCCG…ACCGGAGA
# [1] = tested on: T1, Rep nickase domain of Muscovy duck circovirus
# T1 sequence (residues 1-111, tag not shown): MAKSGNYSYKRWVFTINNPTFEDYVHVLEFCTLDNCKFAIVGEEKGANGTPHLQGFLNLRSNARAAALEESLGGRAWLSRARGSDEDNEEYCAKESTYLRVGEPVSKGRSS
# Experimental: (§1)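 A pool of 90-nt single-stranded DNAs with seven random bases just before the constant AC of the nick site (name = the seven bases) was cut by 3 µM recombinant His6-SUMO-tagged Rep nickase domain (300 nM DNA, 50 mM HEPES pH 8.0, 50 mM NaCl, 1 mM MnCl2, 1 h, 37 °C, three replicates). Uncut DNA was amplified and sequenced.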
# [2] = tested on: T2, Rep nickase domain of banana bunchy top virus
# T2 sequence (residues 1-94, tag not shown): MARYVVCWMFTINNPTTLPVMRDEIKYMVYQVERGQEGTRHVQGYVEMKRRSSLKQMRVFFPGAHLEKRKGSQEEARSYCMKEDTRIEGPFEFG
# Experimental: as §1
# [3] = tested on: T3, Rep nickase domain of cabbage leaf curl virus
# T3 sequence (residues 1-116, tag not shown): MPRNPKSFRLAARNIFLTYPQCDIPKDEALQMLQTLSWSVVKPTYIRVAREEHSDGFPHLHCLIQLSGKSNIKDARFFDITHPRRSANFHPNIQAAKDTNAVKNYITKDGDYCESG
# Experimental: as §1
# [4] = tested on: T4, Rep nickase domain of chickpea chlorotic dwarf virus
# T4 sequence (residues 1-124, tag not shown): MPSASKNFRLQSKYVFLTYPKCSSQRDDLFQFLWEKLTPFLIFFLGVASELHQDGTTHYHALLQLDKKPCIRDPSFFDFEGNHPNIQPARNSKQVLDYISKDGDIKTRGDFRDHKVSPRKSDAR
# Experimental: as §1
# [5] = tested on: T5, Rep nickase domain of faba bean necrotic yellows virus
# T5 sequence (residues 1-98, tag not shown): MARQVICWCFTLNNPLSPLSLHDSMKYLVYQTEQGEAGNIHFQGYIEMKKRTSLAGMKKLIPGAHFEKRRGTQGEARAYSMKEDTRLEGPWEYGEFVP
# Experimental: as §1
# [6] = tested on: T6, Rep nickase domain of maize striate mosaic virus
# T6 sequence (residues 1-117, tag not shown): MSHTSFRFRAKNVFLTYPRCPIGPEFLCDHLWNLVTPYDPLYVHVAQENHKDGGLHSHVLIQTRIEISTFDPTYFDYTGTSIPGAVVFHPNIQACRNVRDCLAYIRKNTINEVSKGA
# Experimental: as §1
# [7] = tested on: T7, Rep nickase domain of porcine circovirus 2
# T7 sequence (residues 2-116, tag not shown): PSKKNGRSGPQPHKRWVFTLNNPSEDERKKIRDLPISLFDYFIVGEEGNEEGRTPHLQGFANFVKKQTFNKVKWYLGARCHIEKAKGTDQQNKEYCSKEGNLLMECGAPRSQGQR
# Experimental: as §1
# [8] = tested on: T8, Rep nickase domain of tomato yellow leaf curl virus
# T8 sequence (residues 1-136, tag not shown): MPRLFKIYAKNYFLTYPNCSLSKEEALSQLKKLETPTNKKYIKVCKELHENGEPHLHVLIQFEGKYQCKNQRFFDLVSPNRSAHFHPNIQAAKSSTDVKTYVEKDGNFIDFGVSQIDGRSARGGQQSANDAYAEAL
# Experimental: as §1
# [9] = tested on: T9, Rep nickase domain of wheat dwarf virus
# T9 sequence (residues 1-137, tag not shown): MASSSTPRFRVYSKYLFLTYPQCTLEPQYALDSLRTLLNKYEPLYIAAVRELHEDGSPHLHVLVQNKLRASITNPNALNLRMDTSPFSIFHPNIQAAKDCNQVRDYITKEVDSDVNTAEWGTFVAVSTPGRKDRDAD
# Experimental: as §1
Sequence,uncleaved DNA left (log2) [1],uncleaved DNA left (log2) [2],uncleaved DNA left (log2) [3],uncleaved DNA left (log2) [4],uncleaved DNA left (log2) [5],uncleaved DNA left (log2) [6],uncleaved DNA left (log2) [7],uncleaved DNA left (log2) [8],uncleaved DNA left (log2) [9]
CGTCTTC,0.127,0.0361,0.203,0.0828,0.0577,-0.169,0.0594,0.0172,0.195
TTGGCCG,0.00441,-0.0787,-0.812,-0.186,-0.0796,-1,0.0398,-0.0318,-0.0994
AATCGGA,0.027,0.0861,0.191,0.42,0.0362,-0.0839,0.11,0.0356,0.0804
TCTGCTT,-0.196,-0.21,-0.279,-2.1,-0.178,-0.658,-0.207,-0.0744,-0.328
CTCGACC,-0.0571,-0.0593,-0.109,-0.156,-0.029,-0.553,-0.169,0.00602,-0.139
ACCACAT,0.141,0.0354,0.22,-0.0103,0.108,-0.21,0.198,0.0584,0.194
CGAGGTT,0.163,0.194,0.361,0.375,0.095,1.37,0.228,0.075,0.14
GCGAAGA,0.119,0.0828,0.217,0.488,0.0229,0.00552,0.158,0.0252,-0.0112
CAGTCTA,-0.127,-0.512,-0.362,-2.38,-0.566,-0.577,-2.87,-0.0899,-0.335
GCAACAG,-0.00967,0.147,-0.35,-0.629,0.133,-0.728,0.268,0.162,0.0108
CTGACAT,0.0126,0.0102,0.535,1.46,0.128,1.52,0.178,0.0499,0.203
GCCAACC,-0.182,-0.035,0.0432,-0.658,-0.182,-0.0389,-0.409,-0.148,-0.0253
AGTGGGA,0.109,0.0375,0.12,0.538,-0.0354,0.408,-0.00714,-0.0326,0.0182
TCGACAG,0.133,0.0402,0.081,0.645,0.105,1.17,0.143,-0.0663,0.0436
TTCCCTG,-0.00896,-0.101,-0.129,-0.337,-0.106,-0.108,-0.205,-0.152,-0.0845
CCGTTCC,-0.0782,-0.0911,0.122,0.124,-0.161,0.0204,-0.00152,-0.0503,-0.116
CAGAACG,-0.0663,0.0165,-0.859,-0.409,-0.116,-1.26,0.0122,-0.0957,-0.122
GATTGAA,-0.281,-0.124,0.0599,0.301,-0.0164,-0.129,-1.2,0.131,0.0678
CACCTTA,-0.017,0.0261,-0.143,-2.25,-0.0236,-0.62,-0.338,0.0516,-0.0991
AAATTAG,0.209,0.172,-0.637,-0.0184,0.121,-0.964,0.265,0.243,0.101

Sequence,uncleaved DNA left (log2) [1],uncleaved DNA left (log2) [2],uncleaved DNA left (log2) [3],uncleaved DNA left (log2) [4],uncleaved DNA left (log2) [5],uncleaved DNA left (log2) [6],uncleaved DNA left (log2) [7],uncleaved DNA left (log2) [8],uncleaved DNA left (log2) [9]
CGGCTTA,0.0881,0.041,0.135,0.0286,-0.0398,0.611,0.101,-0.0718,0.052
TGAGATT,0.088,-0.0483,0.354,-0.804,0.205,1.02,-0.015,0.0185,0.0433
ACGATGT,0.107,0.0645,-0.145,-0.0736,0.0171,-0.383,0.15,0.0627,-0.0199
CCCGAAT,0.0756,0.0388,0.0926,-0.201,-0.147,-0.116,-0.262,-0.0627,-0.182
TCTTCCT,-0.574,-0.0941,-0.157,-2.42,-0.0559,-0.539,-1.69,-0.0285,-0.0745
CGCTAGA,-0.109,-0.136,-0.227,-0.28,0.000287,-0.657,-0.0204,-0.0669,-0.192
TTCGAGT,-0.0494,-0.0951,0.0257,-0.207,0.0542,-0.52,-0.056,-0.0476,-0.0619
TGCGAGT,-0.0165,-0.194,-0.224,0.0416,-0.173,0.373,-0.0827,-0.209,-0.107
CATTCGA,-0.00649,-0.0116,-0.626,-0.165,0.0866,-1.05,0.0873,0.0972,-0.0972
GTCAGTA,0.031,0.14,0.321,0.831,0.106,1.59,0.144,0.0784,0.125
TGAATGC,0.0597,-0.042,-0.429,-0.522,-0.0165,-1.04,0.073,-0.142,-0.0552
TGGTGTG,-0.0467,-0.117,-0.743,-0.345,-0.0478,-0.772,0.0691,-0.00837,-0.22
TATTCCT,-3.94,-3.7,-1.31,-3.06,-0.232,-0.556,-3.61,-0.126,-0.431
GTACCCC,0.0308,0.138,0.406,0.725,0.0579,1.42,-0.201,0.109,0.03
ACAGACC,-0.107,0.0256,-0.104,0.432,-0.0896,0.252,0.0155,-0.202,-0.132
TATGATA,0.000288,0.00615,-0.0267,-2.24,0.207,-0.154,-0.0267,0.032,0.0399
AATGTTT,0.0956,-0.246,-0.641,-2.17,0.0355,0.185,-2.05,-0.0529,-0.208
ACCCCGG,-0.0445,0.0425,-0.216,-0.0246,0.102,-0.345,0.168,-0.0455,-0.14
TCGTCAA,-0.0534,-0.138,0.0578,-0.0693,-0.0962,-0.342,-0.197,-0.0869,-0.0675
TAGCACT,-0.0707,-0.107,-0.519,-2.85,-0.187,0.652,-3.28,-0.108,-0.14

Sequence,uncleaved DNA left (log2) [1],uncleaved DNA left (log2) [2],uncleaved DNA left (log2) [3],uncleaved DNA left (log2) [4],uncleaved DNA left (log2) [5],uncleaved DNA left (log2) [6],uncleaved DNA left (log2) [7],uncleaved DNA left (log2) [8],uncleaved DNA left (log2) [9]
GGAGGGG,0.104,-0.0427,0.537,0.839,-0.183,1.07,0.256,0.0734,-0.0833
ACTACCA,-0.0795,-0.0386,-0.115,-1.14,-0.04,-0.324,-0.286,-0.18,-0.0471
ATATGTT,-3.65,-1.02,-3.31,-2.99,-0.196,-2.49,-3.45,-0.0895,-2.17
AGCAGAC,0.034,-0.0512,0.086,0.469,0.0019,0.978,0.0447,-0.143,0.00991
CATCAAC,-0.0961,-0.0391,-0.113,-1.48,-0.0598,-0.87,-0.0883,-0.0228,-0.0425
AGCAGTG,0.000401,0.069,-0.136,0.346,0.0193,0.976,0.051,-0.154,0.01
TGCGTCT,-0.00031,-0.207,-0.22,-0.506,-0.133,-0.147,-0.042,-0.103,-0.168
TTTCCAC,0.0395,0.0241,0.143,-0.106,-0.0127,-0.107,-0.323,0.0753,0.0996
TGACGGG,-0.184,-0.0933,-0.0874,-0.0925,-0.15,-0.28,0.0302,-0.107,-0.111
CTCCGAC,-0.077,-0.111,0.000143,0.0953,-0.053,-0.471,-0.0459,-0.148,-0.051
CTCCCGT,-0.123,-0.0506,-0.404,-0.984,-0.204,-0.71,-0.00359,-0.0416,-0.06
CACATCT,0.0375,-0.152,-0.62,-3.09,0.0915,-0.952,-1.18,0.0469,-0.0231
GCTTGAG,0.0881,0.0607,-0.559,-0.118,0.0353,-0.823,0.168,0.0719,0.0145
TTTATAT,0.0133,0.0512,0.206,-0.62,0.0103,-0.24,-0.435,0.00135,0.00904
GTGCACT,-0.0223,0.0834,0.36,0.951,-0.00993,1.7,0.121,0.0719,0.119
AAGGTCG,-0.149,-0.103,-0.898,-0.524,-0.104,-1.03,0.000775,-0.0858,-0.212
CCTACGT,0.0199,-0.0218,0.197,-0.585,0.0882,-0.26,0.00302,-0.0295,-0.131
TTGGTTC,0.0176,-0.0454,0.194,-0.697,-0.0452,-0.135,-0.15,-0.126,-0.146
GCGACTC,0.0667,0.131,0.0377,0.677,-0.0631,1.48,0.0327,-0.0473,0.0838
TTGATAA,0.0799,0.0535,0.196,0.575,0.0799,0.84,0.0323,0.0838,0.0546
